According to PubChem BioAssay AID651820 (National Center for Advancing Translational Sciences (NCATS), 2012):
Hit rate of the full screen: of about 340,000 compounds, about 12,000 (3.5%) were called active. The inconclusive results got no clear call from the source; some entries with a clear call stand among them for comparison. The call rests on the fitted dose curve; in most records, active means well fitted inhibition curve with a large enough effect; inconclusive means small, poorly fitted or top-dose-only effect, or another doubt; inactive means no such curve, though single readings can be large or run the other way. No potency is given beside an inconclusive call; the fits are too rough.

test: qHTS Assay for Inhibitors of Hepatitis C Virus (HCV); conditions: Huh7.5.1 HCVcc-Cre (HCVcc is cell-culture hepatitis C virus) infection, luciferase reporter, 44 h; series mostly up to 41.8 µM
Method in brief: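 Infectious HCVcc-Cre (~0.5 moi) was added to cells just after compound, with cells seeded 4 h earlier at 1,000 per well. Luciferase activity after 44 h culture reported infection; substrate was incubated 15 min at room temperature before reading.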
Potency means the concentration at half of the fitted maximal effect; tags describe the fitted curve by direction and shape.

Structure (SMILES)	Potency
Cc1cccc(C(C)C)c1NC(=O)C1CCN(S(=O)(=O)c2ccccc2)CC1	inconclusive [inhibitor, single point]
Cc1ccccc1OCC(=O)Nc1cc(S(=O)(=O)N2CCOCC2)ccc1N1CCCC1	inconclusive [inhibitor, partial curve]
O=C1S/C(=C/c2ccccc2)C(=O)N1CC(O)Cn1c2ccccc2c2ccccc21 (configuration not stated)	inactive
COc1ccc(COC(=O)c2ccc(C)c(S(=O)(=O)N3CCOCC3)c2)cc1F	inconclusive [inhibitor, single point]
OC(COCC(F)(F)C(F)(F)C(F)(F)C(F)F)Cn1c2ccc(Cl)cc2c2cc(Cl)ccc21 (configuration not stated)	active: 3.16 µM
CC(C)c1c(C(=O)N/N=C/c2ccc(OCc3ccccc3)cc2)nnn1-c1nonc1N	inconclusive [inhibitor, partial curve]
Cc1ccc(-c2csc(NC(=O)CSc3nc4ccccc4[nH]3)n2)cc1	inconclusive [inhibitor, single point]
O=C1NC(=S)S/C1=C\C=C\c1ccc([N+](=O)[O-])o1	inconclusive [inhibitor, partial curve]
Cc1cc(C(=O)N/N=C/c2ccc(O)c(O)c2O)c(C)n1-c1ccccc1	active: 5.62 µM
COc1ccc(-c2ccn(-c3cccc(F)n3)n2)cc1	inactive
CC(C)CCNC(=O)NC(=O)CSc1nnc(-c2ccccc2Br)o1	inconclusive [inhibitor, single point]
O=C(NCCc1ccccc1)c1ccc(Cl)c(S(=O)(=O)N2CCOCC2)c1	inconclusive [inhibitor, single point]
O=C(Nc1ccc(NC(=S)NC(=O)c2cccs2)cc1)c1ccccc1	inconclusive [inhibitor, full curve, poor fit]
CCOC(=O)c1c(C)[nH]c(C)c1C(=O)COC(=O)CNC(=O)c1ccc(OCC)cc1	inconclusive [inhibitor, partial curve, poor fit]
CSCCC1NC(=O)N(CC(=O)Nc2cccc(S(=O)(=O)N3CCCCCC3)c2)C1=O (configuration not stated)	active: 11.2 µM
CN1CCN(Cc2c(O)ccc3cc(-c4ccccn4)c(=O)oc23)CC1	inconclusive [inhibitor, single point]
Cc1ccc(Oc2cc(NC(=O)CCCn3nc(C)c([N+](=O)[O-])c3C)cc([N+](=O)[O-])c2)cc1	inconclusive [inhibitor, single point]
Cc1ccc(S(=O)(=O)CC(=O)c2cc(C)c(OC(=O)N(C)C)c(C)c2)cc1	inconclusive [inhibitor, single point]
CCOc1cc(NC(=O)C2CCCCC2)c(OCC)cc1NC(=O)c1ccco1	inconclusive [inhibitor, single point]
O=C(NCCCCc1ccccc1)C12CN(Cc3ccccc3)CC1C(c1ccc([N+](=O)[O-])cc1)=NO2 (configuration not stated)	inconclusive [inhibitor, partial curve]
COc1ccc(S(=O)(=O)N2CCCC(C(=O)N3CCOCC3)C2)cc1C (configuration not stated)	inconclusive [inhibitor, single point]
CN=C1SC(CC(=O)Nc2sc(C)c(C)c2C(=O)OC)C(=O)N1C (configuration not stated)	inconclusive [inhibitor, partial curve]
CC(Sc1ccsc1[N+](=O)[O-])C(=O)NCCc1ccc(Cl)cc1 (configuration not stated)	inconclusive [inhibitor, partial curve]

Structure (SMILES)	Potency
CS(=O)(=O)c1ccc2nc(NC(=O)CCNC(=O)c3ccc([N+](=O)[O-])cc3)sc2c1	inconclusive [inhibitor, partial curve]
O=C1c2ccccc2NC(c2cccc(Cl)c2)N1N=C1CCCCCC1 (configuration not stated)	inactive
Oc1ccc(C=NN=Cc2ccco2)c(O)c1	inactive
Cn1c(CCNC(=O)c2ccco2)nc2cc(NS(=O)(=O)c3ccccc3)ccc21	inconclusive [inhibitor, partial curve]
CCc1cc(C(=O)NNC(=S)Nc2cc(C)ccc2C)cs1	inconclusive [inhibitor, partial curve]
O=C(c1ccccc1)N1CCN(C(=O)C23CC4CC(CC(C4)C2)C3)CC1	inactive
CCCn1c(N)c(C(=O)CSc2nnnn2-c2ccc(O)cc2)c(=O)n(C)c1=O	inconclusive [inhibitor, single point]
CCN1CCC2(CCN(C(=O)c3cc(COc4cc(C)ccc4C)on3)C2)C1 (configuration not stated)	inconclusive [inhibitor, partial curve]
CC(C)CN1CCNC(=O)C1CC(=O)NCCc1cnn(-c2ccccc2)c1 (configuration not stated)	inactive
Cc1ccc2nc(/C(C#N)=N/O)[nH]c2c1	inactive
CC(Sc1nnnn1C1CCCC1)C(=O)Nc1cccc(S(=O)(=O)N2CCOCC2)c1 (configuration not stated)	inactive
CSc1ccc(CN2CCN(Cc3ccc([N+](=O)[O-])cc3)CC2)cc1	inconclusive [inhibitor, partial curve]
COC(=O)C(C)Sc1nc2c(c(=O)n(C)c(=O)n2C)n1Cc1cccc(C)c1 (configuration not stated)	inactive
Cc1noc(C)c1COc1ccc(C(=O)NCCc2ccc(F)cc2)cc1	inconclusive [inhibitor, partial curve]
C=CCc1ccccc1OCC(O)Cn1ccnc1C (configuration not stated)	inconclusive [inhibitor, single point]
N#Cc1c(-c2ccccc2)cc(-c2ccco2)c(C#N)c1N	inconclusive [inhibitor, single point]
COc1ccc(C(CNC(=O)c2cc3ccccc3cc2OC)N2CCCC2)cc1 (configuration not stated)	inconclusive [inhibitor, full curve, poor fit]
COc1ccc(S(=O)(=O)/N=C2/NC(=O)/C(=C/c3ccco3)S2)cc1	inactive
CN(C)CCCN(C(=O)c1ccc(C(=O)c2ccccc2)cc1)c1nc2cc3c(cc2s1)OCO3	active: 14.1 µM
Cc1noc(C)c1C(=O)Nc1ccc(F)cc1F	inactive
O=C(Nc1ccc2nc3n(c(=O)c2c1)CCCCC3)c1ccccc1[N+](=O)[O-]	inconclusive [inhibitor, partial curve]
CCOc1ccc(NC(=O)Nc2ccc(Cc3ccncc3)cc2)cc1	inconclusive [inhibitor, single point]
O=C(CCSCc1ccc(Cl)cc1)NCCc1ccccc1	inactive

Structure (SMILES)	Potency
Cc1nn(-c2ccccc2)c2c1C1(C(=O)Nc3ccccc31)N1C(=N2)Sc2ccccc21 (configuration not stated)	inconclusive [inhibitor, single point]
COC(=O)C(O)(CC(=O)Nc1cc(OC)c(OC)c(OC)c1)C(F)(F)F (configuration not stated)	inconclusive [inhibitor, single point]
O=C1N(c2ccccc2)C[C@@H]2C[C@@H](c3cccs3)N3CCC[C@@]123	inconclusive [inhibitor, single point]
COCC(C)n1c(SCC(=O)Nc2sccc2C(N)=O)nc2ccccc2c1=O (configuration not stated)	inconclusive [inhibitor, single point]
C=CCSc1nnc2c(n1)OC(c1ccco1)Nc1ccccc1-2 (configuration not stated)	inactive
COc1ccc(-c2csc(Nc3cccnc3)n2)cc1	active: 10 µM
Nc1c2c(=O)oc(-c3ccccc3)cc2nn1-c1ccccc1	inconclusive [inhibitor, single point]
CCOC(=O)C1(C(=O)OCC)C(C(=O)c2ccccc2)C1c1ccccc1 (configuration not stated)	inconclusive [inhibitor, single point]
CC1CCN(S(=O)(=O)c2ccc3c(c2)NC(=O)CS3)CC1	inactive
O=C(C1=C[C@@H](c2csc3ccccc23)C[C@@H](OCCCCO)O1)N1CCN(Cc2ccc3c(c2)OCO3)CC1	inconclusive [inhibitor, full curve, poor fit]
CC(=O)c1ccc(NS(=O)(=O)c2ccc(C(C)(C)C)cc2)cc1	inconclusive [inhibitor, single point]
O=C(Cn1c(=O)cnc2ccccc21)Nc1cc(Cl)ccc1N1CCOCC1	inconclusive [inhibitor, partial curve]
Cc1cccc(C)c1Nc1c(-c2ccc(N3CCOCC3)cc2)nc2ncccn12	inconclusive [inhibitor, partial curve]
O=C(Cc1csc(NC(=O)Nc2cccc(Cl)c2)n1)NC1CCCC1	inconclusive [inhibitor, full curve]
O=C(CSc1ccc2nnc(-c3cccnc3)n2n1)NCc1ccc2c(c1)OCO2	inconclusive [inhibitor, single point]
c1ccc(CSCc2ccccc2)cc1	inactive
CCc1cccc2c(C#N)cn(CC(=O)NCCOC)c12	inactive
CC(C)[C@H](NC(=O)[C@H]1N2C(=O)c3ccccc3C2SC1(C)C)C(=O)NCc1ccco1 (some centres not stated)	inactive
Cc1cc(C)n(-c2ccc(NC(=O)C3CCCCN3C(=O)c3sccc3C)cc2)n1 (configuration not stated)	inconclusive [inhibitor, single point]
O=C1c2ccccc2-c2ncnc3c(N4CCOCC4)cc(N4CCOCC4)c1c23	inconclusive [inhibitor, single point]
Cc1ccc(-n2nc3c(=O)n(C(C)C(=O)NCCc4cccs4)nc(C)c3c2C)cc1 (configuration not stated)	inconclusive [inhibitor, partial curve]
